Assay results taken from PubChem BioAssay AID1346428 (National Center for Advancing Translational Sciences (NCATS), 2018).
Where “and” joins values, the source holds several entries; their conditions need not be identical. Equal entries are not always repeated. Among all 48,000 compounds or so, about 1,200 (2.5%) were called active. Not shown: some 2% with an inconclusive outcome.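 The calls were made as follows: active = activation of at least 60% and not above a set upper limit (about 1 call in 100 departs from these limits); inconclusive = activation of 40% to 60%, or above that upper limit; inactive = activation under 40%.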 Some of the results follow.

target: Probable G-protein coupled receptor 32 (Homo sapiens) (UniProt O75388); assay: qHTS for Agonists of Human Resolvin D1 Receptor DRV1; conditions: CHO-K1 GPR32 beta-arrestin PathHunter luminescence, 90 min; at 76.9 µM; stronger effect = higher value; zero percent set by DMSO-only wells; also: 0% is about no effect
UniProt O75388, sequence (O75388 whole entry, looked up, the tested form may be a part): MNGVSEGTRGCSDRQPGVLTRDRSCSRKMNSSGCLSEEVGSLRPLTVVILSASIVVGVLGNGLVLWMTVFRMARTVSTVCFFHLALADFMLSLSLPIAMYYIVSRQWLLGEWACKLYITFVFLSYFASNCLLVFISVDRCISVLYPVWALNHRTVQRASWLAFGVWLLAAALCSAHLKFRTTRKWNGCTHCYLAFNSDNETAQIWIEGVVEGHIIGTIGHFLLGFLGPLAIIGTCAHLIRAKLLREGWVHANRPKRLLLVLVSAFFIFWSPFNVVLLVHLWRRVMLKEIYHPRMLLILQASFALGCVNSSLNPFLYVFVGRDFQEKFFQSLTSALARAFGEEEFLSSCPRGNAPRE
In short: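 Agonism was scored by beta-Gal fragment complementation (chemiluminescent read, 1 h detection at ambient temperature) reporting beta-arrestin binding to GPR32 in engineered CHO-K1 cells. Compound treatment lasted 90 min at 37 C, normalized to a DMSO basal control.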

activation, inactive:
O=C(Nc1ccc(C(=O)OCc2cc(=O)n3ccsc3n2)cc1)c1cccc(F)c1 -9.75%
CCOc1ccc(CC(=O)Nc2c(C(=O)c3ccc(F)cc3)oc3ccc(Cl)cc23)cc1OCC -2.33%
Cc1ccc(CNC(=O)c2c[nH]n3c(=O)c(Cc4ccc(F)cc4Cl)c(C)nc23)cc1 6.26%
Cc1nnc(N2CCN(c3cccc(C(F)(F)F)c3)CC2)c2c1nnn2Cc1ccccc1 -0.768%
Cn1c(C(=O)N2CCC(C(=O)N3CCN(c4ccccc4)CC3)CC2)cc2sccc21 1.63%
COc1ccc(N2Cc3cccc(C(=O)Nc4cccc(F)c4)c3C2=O)cc1 -2.05%
Cc1cc(NC(=O)C2CCCN(S(=O)(=O)c3cn(C)cn3)C2)ccc1Br (centres undefined) -0.353%
Cc1ccc(-c2cc(NC(=O)C(C)Oc3ccccc3F)on2)cc1 (centres undefined) -3.71%
CN(C)c1ccc(C(=O)Nc2ccc(-c3nc4ccccc4o3)cc2)cc1 -11%
Cc1noc2ncnc(NCc3ccc(Cl)cc3)c12 32.4%
Clc1ccccc1-c1nnc(SCc2nc(-c3ccccc3)no2)n1-c1ccccc1 49.9%
O=C(NCCc1ccc(Cl)cc1)c1ccc(CSCc2ccc(Cl)cc2)o1 -20%
COc1ccc(N2CCN(C(=O)Nc3ccccc3Cl)CC2)cc1 -1.39%
COc1ccc(Cn2c(CCC(=O)Nc3ccc(OC)c(Cl)c3)nc3cccnc32)cc1 4.67%
CCOc1ccc(NC(=O)CCC(=O)N2CCSc3ccccc32)cc1 -8.67%
CCCC(=O)n1nc(-c2cccnc2)nc1NCc1ccccc1 -20.7%
CCc1ccccc1NC(=O)Cn1c(=O)n(CCc2ccccc2)c(=O)c2ccccc21 -12.2%
O=C(Nc1ccc2nc(SCC(=O)N3CCOCC3)sc2c1)c1cccc(F)c1 -6.83%
COc1ccc(NS(=O)(=O)c2c(C)nc3scc(C)n3c2=O)cc1 14.2%
CCCCNC(=O)CCSc1nc(-c2ccc3c(c2)OCO3)cc(C(F)(F)F)n1 10.6%
CCOC(=O)N1CCN(S(=O)(=O)N2CCCC(C(=O)NCc3ccc(OC)cc3OC)C2)CC1 (centres undefined) -11.4%
O=c1oc2ccc(Cl)cc2cc1-c1cn2c(n1)sc1ccccc12 -2.22%
COc1cccc(NC(=O)CSC2=Nc3ccccc3C3=NC(CC(=O)NCc4ccccc4OC)C(=O)N23)c1 (centres undefined) 1.68%
OC[C@@H](O)[C@H](O)[C@H](O)[C@@H](O)CO -24.6% and -15%
